Source: the supplement of paper PMC9151546
Most values come without repeats; read them as rough.

Assays:
CHO-K1 [1] = assay: micronucleus frequency (% of nucleated events); higher = more micronuclei (genotoxic)
CHO-K1 [2] = assay: relative survival (nuclei to bead ratio vs DMSO control) (% of vehicle control); higher = more surviving cells
Procedure: (§1)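 Flow-cytometric in vitro micronucleus assay (Litron MicroFlow) in CHO-K1 cells in 96-well plates, 19 concentrations (4.5-200 µM, n=1 per concentration). Without S9, cells were exposed for 24 h and sampled at 48 h. With Aroclor 1254-induced rat liver S9, cells were exposed for 3-4 h and sampled at 27-28 h. Read-outs are %MN and %hypodiploid nuclei relative to nucleated events, and relative survival as the nuclei-to-bead ratio versus the 1% DMSO vehicle control (x100).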

CHO-K1 [3] = assay: hypodiploid nuclei frequency (% of nucleated events); higher = more hypodiploid events (aneugenic)
Procedure: as §1
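For hypodiploid nuclei frequency (% of nucleated events) in this document: hypodiploid nuclei gated on a flow cytometer with 488 nm excitation after SYTOX Green staining, cultures at 37 °C, positive controls vinblastine without S9 and cyclophosphamide with S9.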
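For micronucleus frequency (% of nucleated events) in this document: cells lysed with nuclei stained by SYTOX Green, then micronucleus-gated events counted against nucleated events by flow cytometry with 488 nm excitation.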
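For relative survival (nuclei to bead ratio vs DMSO control) in this document: Lysed-cell nuclei stained with SYTOX Green and counted against counting beads by flow cytometry at 488 nm excitation, with vinblastine (no S9) and cyclophosphamide (plus S9) as positive controls.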

c1ccc2c(c1)oc1ccccc12 [Dibenzofuran]
Details | hypodiploid nuclei frequency, CHO-K1 [3] [%] | micronucleus frequency, CHO-K1 [1] [%] | relative survival, CHO-K1 [2]
concentration: 4.5 (µM), S9 metabolic activation: with S9, exposure time: 3-4 hours | 0.15 | 1.54 | 101
concentration: 4.5 (µM), S9 metabolic activation: without S9, exposure time: 24 hours | 0.56 | 1.7 | 97.4
concentration: 5.63 (µM), S9 metabolic activation: with S9, exposure time: 3-4 hours | 0.24 | 1.73 | 108
concentration: 5.63 (µM), S9 metabolic activation: without S9, exposure time: 24 hours | 0.38 | 1.9 | 137
concentration: 7.04 (µM), S9 metabolic activation: with S9, exposure time: 3-4 hours | 0.24 | 1.37 | 114
concentration: 7.04 (µM), S9 metabolic activation: without S9, exposure time: 24 hours | 0.82 | 1.68 | 99.6
concentration: 8.8 (µM), S9 metabolic activation: with S9, exposure time: 3-4 hours | 0.33 | 1.55 | 111
concentration: 8.8 (µM), S9 metabolic activation: without S9, exposure time: 24 hours | 0.7 | 1.86 | 149
concentration: 11 (µM), S9 metabolic activation: with S9, exposure time: 3-4 hours | 0.26 | 1.31 | 110
concentration: 11 (µM), S9 metabolic activation: without S9, exposure time: 24 hours | 0.44 | 2.08 | 138
concentration: 13.7 (µM), S9 metabolic activation: with S9, exposure time: 3-4 hours | 0.23 | 1.3 | 117.8
concentration: 13.7 (µM), S9 metabolic activation: without S9, exposure time: 24 hours | 0.38 | 1.7 | 155
concentration: 17.2 (µM), S9 metabolic activation: with S9, exposure time: 3-4 hours | 0.19 | 1.49 | 114
concentration: 17.2 (µM), S9 metabolic activation: without S9, exposure time: 24 hours | 0.56 | 2.06 | 127
concentration: 21.5 (µM), S9 metabolic activation: with S9, exposure time: 3-4 hours | 0.26 | 1.32 | 103
concentration: 21.5 (µM), S9 metabolic activation: without S9, exposure time: 24 hours | 0.52 | 1.94 | 119
concentration: 26.8 (µM), S9 metabolic activation: with S9, exposure time: 3-4 hours | 0.25 | 1.86 | 122
concentration: 26.8 (µM), S9 metabolic activation: without S9, exposure time: 24 hours | 0.92 | 2.56 | 102
concentration: 33.6 (µM), S9 metabolic activation: with S9, exposure time: 3-4 hours | 0.17 | 1.43 | 94.8
concentration: 33.6 (µM), S9 metabolic activation: without S9, exposure time: 24 hours | 0.62 | 2.08 | 130
concentration: 41.9 (µM), S9 metabolic activation: with S9, exposure time: 3-4 hours | 0.26 | 1.69 | 99.09
concentration: 41.9 (µM), S9 metabolic activation: without S9, exposure time: 24 hours | 0.78 | 2.46 | 131
concentration: 52.4 (µM), S9 metabolic activation: with S9, exposure time: 3-4 hours | 0.19 | 2.18 | 106
concentration: 52.4 (µM), S9 metabolic activation: without S9, exposure time: 24 hours | 0.96 | 2.42 | 129
concentration: 65.5 (µM), S9 metabolic activation: with S9, exposure time: 3-4 hours | 0.23 | 1.83 | 99.27
concentration: 65.5 (µM), S9 metabolic activation: without S9, exposure time: 24 hours | 0.76 | 2.08 | 136
concentration: 81.9 (µM), S9 metabolic activation: with S9, exposure time: 3-4 hours | 0.27 | 2.05 | 83.4
concentration: 81.9 (µM), S9 metabolic activation: without S9, exposure time: 24 hours | 0.74 | 3.32 | 137
concentration: 102 (µM), S9 metabolic activation: with S9, exposure time: 3-4 hours | 0.44 | 2.37 | 106
concentration: 102 (µM), S9 metabolic activation: without S9, exposure time: 24 hours | 0.84 | 3.18 | 135
concentration: 128 (µM), S9 metabolic activation: with S9, exposure time: 3-4 hours | 0.31 | 2.14 | 101
concentration: 128 (µM), S9 metabolic activation: without S9, exposure time: 24 hours | 1.02 | 3 | 133
concentration: 160 (µM), S9 metabolic activation: with S9, exposure time: 3-4 hours | 0.27 | 3.03 | 86.7
concentration: 160 (µM), S9 metabolic activation: without S9, exposure time: 24 hours | 1.08 | 3.26 | 129
concentration: 200 (µM), S9 metabolic activation: with S9, exposure time: 3-4 hours | 0.48 | 3.01 | 87.9
concentration: 200 (µM), S9 metabolic activation: without S9, exposure time: 24 hours | 1.02 | 3.3 | 121
